# According to PMC4336329 (PLoS ONE, 2015):
# The campaign covered roughly 310,000 compounds. About 14,000 (4.5%) showed an effect of 50% or more. The effect is printed as a negative number. The list shows a part of the results.
# Target: human ether-à-go-go-related gene (hERG) potassium channel (human, UniProt Q12809)
# Test: primary screen, population patch clamp on CHO cells stably expressing hERG
# 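Also: peak tail current of the secondary pulse compared with the same well before compound.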
# Chain of human ether-à-go-go-related gene (hERG) potassium channel (Q12809 whole entry, looked up): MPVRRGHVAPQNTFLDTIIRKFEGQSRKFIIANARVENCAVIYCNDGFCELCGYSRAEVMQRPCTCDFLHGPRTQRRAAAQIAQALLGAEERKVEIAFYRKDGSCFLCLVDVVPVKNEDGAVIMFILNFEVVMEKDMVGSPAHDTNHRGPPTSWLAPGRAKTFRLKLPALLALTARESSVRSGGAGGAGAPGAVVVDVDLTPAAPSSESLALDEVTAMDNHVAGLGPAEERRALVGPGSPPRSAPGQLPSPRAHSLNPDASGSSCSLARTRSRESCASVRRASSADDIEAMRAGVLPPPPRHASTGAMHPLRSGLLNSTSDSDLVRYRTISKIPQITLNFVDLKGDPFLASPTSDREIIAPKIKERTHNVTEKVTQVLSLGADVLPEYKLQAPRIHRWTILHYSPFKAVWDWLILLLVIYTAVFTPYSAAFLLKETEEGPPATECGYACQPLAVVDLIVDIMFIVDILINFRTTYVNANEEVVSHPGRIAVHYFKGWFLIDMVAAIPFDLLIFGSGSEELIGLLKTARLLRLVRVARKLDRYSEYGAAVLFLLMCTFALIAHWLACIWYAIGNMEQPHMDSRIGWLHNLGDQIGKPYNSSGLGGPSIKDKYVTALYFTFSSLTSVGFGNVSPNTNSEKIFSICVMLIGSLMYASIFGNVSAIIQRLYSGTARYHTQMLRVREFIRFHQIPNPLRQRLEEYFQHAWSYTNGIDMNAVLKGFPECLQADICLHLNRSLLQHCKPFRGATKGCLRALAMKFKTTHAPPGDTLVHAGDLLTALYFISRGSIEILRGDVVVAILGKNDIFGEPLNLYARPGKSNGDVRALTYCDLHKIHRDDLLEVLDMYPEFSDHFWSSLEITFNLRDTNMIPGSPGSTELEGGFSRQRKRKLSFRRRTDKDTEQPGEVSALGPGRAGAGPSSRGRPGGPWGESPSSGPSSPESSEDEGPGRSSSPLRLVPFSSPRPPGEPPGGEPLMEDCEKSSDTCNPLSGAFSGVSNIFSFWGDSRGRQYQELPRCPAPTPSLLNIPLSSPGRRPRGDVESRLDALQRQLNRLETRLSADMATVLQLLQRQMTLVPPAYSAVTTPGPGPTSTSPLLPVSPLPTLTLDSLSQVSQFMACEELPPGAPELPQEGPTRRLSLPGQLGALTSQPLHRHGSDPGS
row,SMILES,"hERG current change (%, negative = inhibition) at 10uM"
1,CCOc1[nH]n(-c2ccccc2)c(=O)c1C=Nc1ccc(C)cc1,-18.1%
2,COc1ccc(-c2csc3ncnc(Oc4ccc5c(C)cc(=O)oc5c4)c23)cc1,12.6%
3,CCC(C(=O)N1CCc2cc(OC)c(OC)cc2C1)c1ccccc1 (stereo not drawn),12.6%
4,CC(C)(C)c1nnc(NC(=O)c2cc(-c3ccccc3)nc3ccccc23)s1,17.3%
5,FC(F)Sc1ccc(N=C2NN=C(c3ccc4c(c3)OCCO4)CS2)cc1,-6.91%
6,Cc1cc2ccccn2c1C(=O)Nc1cccc(Cl)c1,41.1%
7,COc1ccc(C2=NN(C(=O)CN3CCOCC3)C(c3nc4ccccc4[nH]3)C2)cc1 (stereo not drawn),-8.74%
8,CCOc1ccccc1NC(=O)C(CC)Sc1nc2ccncc2[nH]1 (stereo not drawn),3.92%
9,CCOC(=O)N1CCN(C(=O)c2ccc3c(=O)n(-c4cc(OC)ccc4OC)c(=S)[nH]c3c2)CC1,31.8%
10,Cc1cccc(NC(=O)c2cccc(N3C(=O)C4C5CCC(C5)C4C3=O)c2)c1C (stereo not drawn),-7.75%
11,CCOC(=O)CSc1nc(-c2ccncc2)ccc1C#N,-61.6%
12,CCOC(=O)c1ccc2c(c1)NC(=O)C(N1CCN(c3ccc(OC)cc3)CC1)S2 (stereo not drawn),7.24%
13,Cc1ccc(C(c2nnnn2CC2CCCO2)N2CCN(C(=O)c3ccco3)CC2)cc1 (stereo not drawn),-4.13%
14,Nc1c(N(Cc2ccco2)C(=O)COc2ccccc2Cl)c(=O)[nH]c(=O)n1Cc1ccccc1,2.98%
15,Cc1nn(Cc2ccc(C(=O)N3N=C(C(F)F)CC3(O)C(F)F)o2)c(C)c1[N+](=O)[O-] (stereo not drawn),-37.3%
16,O=S(=O)([N-]c1nc2ccccc2nc1-[n+]1ccc(-c2ccncc2)cc1)c1ccccc1,5.07%
17,CC1(C)Oc2ccc3ccc(=O)oc3c2-c2cnoc21,14.1%
18,O=C(c1ccco1)N1CCN(Cc2cccc(F)c2)CC1,-0.928%
19,CCCCn1c(N)c(N(CC(C)C)C(=O)CSc2ccccc2C)c(=O)[nH]c1=O,1.8%
20,COc1ccc2c(c1)C(=O)N(c1ccc(C)cc1C)C(=O)C2(C)C,1.59%
21,O=C(CCS(=O)(=O)c1ccc(Br)cc1)Nc1ccc2c(c1)OCO2,0.695%

row,SMILES,"hERG current change (%, negative = inhibition) at 10uM"
1,C=CCn1c(SCC(=O)Nc2ccc(N3CCOCC3)cc2)nnc1-c1ccco1,2.29%
2,O=C(C(=O)N1CCN(c2ccccc2F)CC1)c1cn(CC(=O)N2CCOCC2)c2ccccc12,2.51%
3,CC1CCN(C(c2ccc(N(C)C)cc2)c2nnnn2Cc2ccccc2)CC1 (stereo not drawn),-2.22%
4,O=C(O)CCC(=O)NNc1nc2ccccc2nc1-c1ccccc1,9.41%
5,COc1ccc(CNC(=O)C2CCN(c3nnc(N4CCCC4=O)s3)CC2)cc1,-5.05%
6,CCCCN(CCCC)S(=O)(=O)c1ccc(NC(=O)c2ccc([N+](=O)[O-])cc2Cl)cc1,20.7%
7,Cc1ccccc1OCCCn1c(=O)sc2ccccc21,21.4%
8,Cc1ccccc1-n1c(C)nnc1SCC(=O)N1CCc2ccccc2C1,-5.79%
9,COc1ccc(OCC(=O)NC2CC(C)(C)NC(C)(C)C2)cc1,12%
10,O=C(CSCc1ccc(Cl)cc1)Nc1cc([N+](=O)[O-])ccc1O,16.9%
11,O=C(/C(=C(\[O-])c1ccccc1)[n+]1ccc2ccccc2c1)c1ccc(Cl)cc1,8.46%
12,O=C(CCC1CCCN(C(=O)C2(c3ccccc3)CC2)C1)N1CCN(c2ccccn2)CC1 (stereo not drawn),-20.6%
13,O=C(/C=C/c1ccccc1)NC(NC(=S)Nc1ccc(C(=O)O)cc1)C(Cl)(Cl)Cl (stereo not drawn),23.5%
14,CCC1CCCCN1C(=O)Cn1c(=O)n(CCC(=O)NCc2ccco2)c(=O)c2sccc21 (stereo not drawn),-6.12%
15,CCCNC(=O)c1ccccc1NC(=O)CSCc1ccc(OC)cc1,25.7%
16,CCOc1ccccc1/C=C(/NC(=O)c1ccccc1)C(=O)N1CCCCC1,-12.2%
17,Cc1ccc(CSCCNC(=O)/C=C/c2ccc(Cl)cc2)cc1,-1.94%
18,CCOc1ccc(NC(=O)CCNC(=O)c2ccc(Br)cc2)cc1,7.86%
19,O=C(Nc1ccc2c(c1)OCCO2)N1CCN(Cc2ccccc2)CC1,5.57%
20,CC(=O)Nc1ccc(S(=O)(=O)NCCc2ccccn2)cc1,12.5%
21,COc1ccc2c(COC(=O)c3n[nH]c4ccccc34)cc(=O)oc2c1,-1.8%
